Data on five molecules can be found in article PMC8531446, “Light-triggered and phosphorylation-dependent 14-3-3 association with NON-PHOTOTROPIC HYPOCOTYL 3 is required for hypocotyl phototropism” (Nature Communications, 2021).

These are yes or no findings as the source states them, for the method shown. Some binding calls cover weakened binding; strength is not graded here. Sequences can lack the tags named with a protein.

Experiment [1] deals with T1, Arabidopsis 14-3-3 isoform epsilon, yeast two-hybrid fusion (Arabidopsis) (UniProt P48347).
T1 sequence: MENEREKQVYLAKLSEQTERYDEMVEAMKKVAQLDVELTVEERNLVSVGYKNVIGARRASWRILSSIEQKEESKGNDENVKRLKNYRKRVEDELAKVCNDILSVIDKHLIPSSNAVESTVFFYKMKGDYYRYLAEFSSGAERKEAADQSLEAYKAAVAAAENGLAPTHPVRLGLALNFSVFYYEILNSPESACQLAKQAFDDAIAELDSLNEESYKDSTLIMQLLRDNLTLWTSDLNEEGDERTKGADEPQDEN
As to the kind of experiment: two-hybrid; constructs in pGADT7 and pGBKT7 co-transformed into yeast strain PJ69-4A; ADE2 reporter, growth on SD medium lacking adenine.

Experiment [2] has as its target T2, Arabidopsis 14-3-3 isoform omega, yeast two-hybrid fusion (Arabidopsis) (UniProt Q01525).
T2 sequence: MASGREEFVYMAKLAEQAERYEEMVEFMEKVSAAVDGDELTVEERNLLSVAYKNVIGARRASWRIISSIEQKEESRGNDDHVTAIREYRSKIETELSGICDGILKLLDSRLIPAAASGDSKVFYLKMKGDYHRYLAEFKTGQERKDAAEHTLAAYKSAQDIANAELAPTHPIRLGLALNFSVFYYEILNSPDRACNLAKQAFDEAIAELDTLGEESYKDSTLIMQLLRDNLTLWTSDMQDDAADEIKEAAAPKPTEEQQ
The description is as above.

B1: NPH3ΔN54, yeast two-hybrid fusion (domain or fragment, UniProt Q9FMF5 55-746)
chain: DLLVKIGDMNFHLHKYPLLSRSGKMNRLIYESRDPDPTILILDDLPGGPEAFELASKFCYGVPVDLTATNISGLRCAAEYLEMTEDLEEGNLIFKTEAFLSYVVLSSWRDSILVLKSCEKLSPWAENLQIVRRCSESIAWKACSNPKGIRWAYTGKAPSPSTTNFAGSSPRWNESKDSSFYCSPSRNTNSQPVPPDWWFEDVSILRIDHFVRVITAIKVKGMRFELLGAVIMHYAGKWLPGLIKEGGVAIAPAMSSAIGGGLGLGGDEMSISCGSNSSGGSSGPDWKGGLHMVLSAGKTNGHQDSVACLAGLGISPKDQRMIVESLISIIPPQKDSVTCSFLLRLLRAANMLKVAPALITELEKRVGMQFEQATLQDLLIPGYNNKGETMYDVDLVQRLLEHFLVQEQTEGSSPSRMSPSPSQSMYADIPRGNNNNGGGGGGNNQNAKMRVARLVDSYLTEVARDRNLPLTKFQVLAEALPESARTCDDGLYRAIDSYLKAHPTLSEHERKRLCRVMDCQKLSMDACMHAAQNERLPLRVVVQVLFSEQVKISNALANTSLKESTTLGEAMGTYQPMIPNRKTLIEATPQSFQEGWAAAKKDINTLKFELETVKTKYVELQNEMEVMQRQFEKTGKVKNTPSSSAWTSGWKKLSKLTKMSGQESHDISSGGEQAGVDHPPPRKPRRWRNSIS
On to B1, for which the binding result in experiment [1] and in experiment [2] was “binds” each time.

B2: NON-PHOTOTROPIC HYPOCOTYL 3 (NPH3), yeast two-hybrid fusion (protein, UniProt Q9FMF5 1-746)
chain: MMWESESDGGVGVGGGGGREYGDGVLSSNKHGGVKTDGFELRGQSWFVATDIPSDLLVKIGDMNFHLHKYPLLSRSGKMNRLIYESRDPDPTILILDDLPGGPEAFELASKFCYGVPVDLTATNISGLRCAAEYLEMTEDLEEGNLIFKTEAFLSYVVLSSWRDSILVLKSCEKLSPWAENLQIVRRCSESIAWKACSNPKGIRWAYTGKAPSPSTTNFAGSSPRWNESKDSSFYCSPSRNTNSQPVPPDWWFEDVSILRIDHFVRVITAIKVKGMRFELLGAVIMHYAGKWLPGLIKEGGVAIAPAMSSAIGGGLGLGGDEMSISCGSNSSGGSSGPDWKGGLHMVLSAGKTNGHQDSVACLAGLGISPKDQRMIVESLISIIPPQKDSVTCSFLLRLLRAANMLKVAPALITELEKRVGMQFEQATLQDLLIPGYNNKGETMYDVDLVQRLLEHFLVQEQTEGSSPSRMSPSPSQSMYADIPRGNNNNGGGGGGNNQNAKMRVARLVDSYLTEVARDRNLPLTKFQVLAEALPESARTCDDGLYRAIDSYLKAHPTLSEHERKRLCRVMDCQKLSMDACMHAAQNERLPLRVVVQVLFSEQVKISNALANTSLKESTTLGEAMGTYQPMIPNRKTLIEATPQSFQEGWAAAKKDINTLKFELETVKTKYVELQNEMEVMQRQFEKTGKVKNTPSSSAWTSGWKKLSKLTKMSGQESHDISSGGEQAGVDHPPPRKPRRWRNSIS
On to B2, for which the binding entry in experiment [1] and in experiment [2] was “binds” in each case.

B3: NPH3-S744A, yeast two-hybrid fusion (protein, UniProt Q9FMF5 1-746)
chain: MMWESESDGGVGVGGGGGREYGDGVLSSNKHGGVKTDGFELRGQSWFVATDIPSDLLVKIGDMNFHLHKYPLLSRSGKMNRLIYESRDPDPTILILDDLPGGPEAFELASKFCYGVPVDLTATNISGLRCAAEYLEMTEDLEEGNLIFKTEAFLSYVVLSSWRDSILVLKSCEKLSPWAENLQIVRRCSESIAWKACSNPKGIRWAYTGKAPSPSTTNFAGSSPRWNESKDSSFYCSPSRNTNSQPVPPDWWFEDVSILRIDHFVRVITAIKVKGMRFELLGAVIMHYAGKWLPGLIKEGGVAIAPAMSSAIGGGLGLGGDEMSISCGSNSSGGSSGPDWKGGLHMVLSAGKTNGHQDSVACLAGLGISPKDQRMIVESLISIIPPQKDSVTCSFLLRLLRAANMLKVAPALITELEKRVGMQFEQATLQDLLIPGYNNKGETMYDVDLVQRLLEHFLVQEQTEGSSPSRMSPSPSQSMYADIPRGNNNNGGGGGGNNQNAKMRVARLVDSYLTEVARDRNLPLTKFQVLAEALPESARTCDDGLYRAIDSYLKAHPTLSEHERKRLCRVMDCQKLSMDACMHAAQNERLPLRVVVQVLFSEQVKISNALANTSLKESTTLGEAMGTYQPMIPNRKTLIEATPQSFQEGWAAAKKDINTLKFELETVKTKYVELQNEMEVMQRQFEKTGKVKNTPSSSAWTSGWKKLSKLTKMSGQESHDISSGGEQAGVDHPPPRKPRRWRNAIS
As for B3, the binding result in experiment [1] and in experiment [2] was “no binding” in each case.

B4: NPH3-S744D, yeast two-hybrid fusion (protein, UniProt Q9FMF5 1-746)
chain: MMWESESDGGVGVGGGGGREYGDGVLSSNKHGGVKTDGFELRGQSWFVATDIPSDLLVKIGDMNFHLHKYPLLSRSGKMNRLIYESRDPDPTILILDDLPGGPEAFELASKFCYGVPVDLTATNISGLRCAAEYLEMTEDLEEGNLIFKTEAFLSYVVLSSWRDSILVLKSCEKLSPWAENLQIVRRCSESIAWKACSNPKGIRWAYTGKAPSPSTTNFAGSSPRWNESKDSSFYCSPSRNTNSQPVPPDWWFEDVSILRIDHFVRVITAIKVKGMRFELLGAVIMHYAGKWLPGLIKEGGVAIAPAMSSAIGGGLGLGGDEMSISCGSNSSGGSSGPDWKGGLHMVLSAGKTNGHQDSVACLAGLGISPKDQRMIVESLISIIPPQKDSVTCSFLLRLLRAANMLKVAPALITELEKRVGMQFEQATLQDLLIPGYNNKGETMYDVDLVQRLLEHFLVQEQTEGSSPSRMSPSPSQSMYADIPRGNNNNGGGGGGNNQNAKMRVARLVDSYLTEVARDRNLPLTKFQVLAEALPESARTCDDGLYRAIDSYLKAHPTLSEHERKRLCRVMDCQKLSMDACMHAAQNERLPLRVVVQVLFSEQVKISNALANTSLKESTTLGEAMGTYQPMIPNRKTLIEATPQSFQEGWAAAKKDINTLKFELETVKTKYVELQNEMEVMQRQFEKTGKVKNTPSSSAWTSGWKKLSKLTKMSGQESHDISSGGEQAGVDHPPPRKPRRWRNDIS
Regarding B4, the binding entry in experiment [1] and in experiment [2] was “no binding” in each case.

B5: NPH3ΔC51, yeast two-hybrid fusion (domain or fragment, UniProt Q9FMF5 1-695)
chain: MMWESESDGGVGVGGGGGREYGDGVLSSNKHGGVKTDGFELRGQSWFVATDIPSDLLVKIGDMNFHLHKYPLLSRSGKMNRLIYESRDPDPTILILDDLPGGPEAFELASKFCYGVPVDLTATNISGLRCAAEYLEMTEDLEEGNLIFKTEAFLSYVVLSSWRDSILVLKSCEKLSPWAENLQIVRRCSESIAWKACSNPKGIRWAYTGKAPSPSTTNFAGSSPRWNESKDSSFYCSPSRNTNSQPVPPDWWFEDVSILRIDHFVRVITAIKVKGMRFELLGAVIMHYAGKWLPGLIKEGGVAIAPAMSSAIGGGLGLGGDEMSISCGSNSSGGSSGPDWKGGLHMVLSAGKTNGHQDSVACLAGLGISPKDQRMIVESLISIIPPQKDSVTCSFLLRLLRAANMLKVAPALITELEKRVGMQFEQATLQDLLIPGYNNKGETMYDVDLVQRLLEHFLVQEQTEGSSPSRMSPSPSQSMYADIPRGNNNNGGGGGGNNQNAKMRVARLVDSYLTEVARDRNLPLTKFQVLAEALPESARTCDDGLYRAIDSYLKAHPTLSEHERKRLCRVMDCQKLSMDACMHAAQNERLPLRVVVQVLFSEQVKISNALANTSLKESTTLGEAMGTYQPMIPNRKTLIEATPQSFQEGWAAAKKDINTLKFELETVKTKYVELQNEMEVMQRQFEKTGKVKNTP
Take B5: the binding result in experiment [1] and in experiment [2] was “no binding” in each case.
